Test results: PubChem BioAssay AID485313 (National Center for Advancing Translational Sciences (NCATS), 2010)
Hit rate of the full screen: of about 320,000 compounds, about 7,600 (2.4%) were called active. The shares of active, inactive and inconclusive entries below differ from those in the screen. The call rests on the fitted dose curve; in most records, active means well fitted activation curve with a large enough effect; inconclusive means small, poorly fitted or top-dose-only effect; inactive means no such curve, though single readings can be large or run the other way. No potency is given beside an inconclusive call; the fits are too rough.
Potency means the concentration at half of the fitted maximal effect; tags describe the fitted curve by direction and shape.

Assay: qHTS Assay for NPC1 Promoter Activators; further: nearly all actives have a fitted effect of over 60% in size; on activation: % of control where 0% means no effect
Conditions: Huh7 NPC1 promoter luciferase reporter, 24 h; series mostly up to 9.22 µM; activation: at the top concentration
In short: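 Luciferase expression driven by the NPC1 promoter was measured in stably transfected Huh7 cells after a 24 h compound incubation, using a luciferase reagent and a luminescence read.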
In the case of `CC(=O)c1ccc(OCc2cc(C(=O)N3CCC(Oc4ccccc4C)CC3)no2)cc1`, the Potency was inconclusive [activator, partial curve]. With `O=C(O)CC1(CC(=O)Nc2cccc(C(=O)O)c2)CCCC1` the “activation” value was inactive: 22.6%. With `CCCC(=O)c1ccc(N2CCOCC2)c(F)c1` the Potency was inconclusive [activator, partial curve]. In the case of `CSc1ccc(/C=C(\C#N)C(=O)NC2CCCCC2)cc1`, the “activation” value was inactive: -2.44%. In the case of `Fc1ccc(C(OCCCc2cnc[nH]2)c2ccc(F)cc2)cc1`, the “activation” value was inactive: -20.2% [at 46.1 µM]. With `N#Cc1ccc(C(=O)NC2=NCCS2)cc1` the Potency was inconclusive [activator, single point]. In the case of `CN(C)C(CNc1ncnc2sc3c(c12)CCCC3)c1ccco1` (stereo unspecified), the “activation” value was inactive: -0.874%. For `O=C(CSc1nnnn1-c1ccccc1)NC(=O)Nc1ccc2c(c1)OCCO2`, the Potency was inconclusive [activator, partial curve]. With `COc1ccccc1OC(C)C(=O)N(Cc1ccco1)C1CCS(=O)(=O)C1` (stereo unspecified) the “activation” value was inactive: 1.71%. For `COC(=O)c1ccc(NC(=S)Nc2ccccn2)cc1`, the Potency was active: 2.82 µM. For `Cc1cc(C)cc(-n2nnnc2SCC(=O)Nc2cccc(NC(=O)c3ccco3)c2)c1`, the Potency was inconclusive [activator, single point]. For `COc1cccc(N2CCN(C(=O)c3oc4ccccc4c3NC(=O)CCc3cc(OC)no3)CC2)c1`, the “activation” value was inactive: -1.99%. For `O=C(/C=C/c1ccco1)Nc1ccc(Oc2ccccc2)cc1`, the Potency was active: 3.98 µM. In the case of `CC(C)(C)C(=O)OCc1nc(-c2ccc(C(F)(F)F)cc2)cs1`, the “activation” value was inactive: -4.06%. In the case of `N/C(=N\OC(=O)c1ccc(Cl)cc1[N+](=O)[O-])c1ccccn1`, the Potency was inconclusive [activator, single point]. For `Cc1cc(NC(=O)CSc2ccc(F)cc2)no1`, the “activation” value was inactive: 6.13%. With `CN(C(=O)c1ccc(NC(=O)c2ccco2)cc1)c1ccccc1` the Potency was inconclusive [activator, single point]. In the case of `CCCC(=O)Nc1nc(-c2ccc(Cl)s2)cs1`, the Potency was inconclusive [activator, single point]. With `CCN(CC)S(=O)(=O)c1ccc2nc(NC(=O)c3cccs3)sc2c1` the “activation” value was inactive: 23.2%. For `CCOc1ccc(OCc2ccc(C(=O)NC(C)C)o2)cc1`, the Potency was inconclusive [activator, partial curve]. For `C=CCNCc1ccccc1[N+](=O)[O-]`, the “activation” value was inactive: -3.56%. In the case of `O=C(NNC(=O)c1cc(Br)ccc1O)c1csc(N2CCOCC2)n1`, the “activation” value was inactive: -2.39%. For `O=C(SCC(O)C(O)CS)c1cccs1` (stereo unspecified), the “activation” value was inactive: -0.664%. For `COc1ccc2nc(NC(=O)CSc3nc(C)cc(C)n3)sc2c1`, the “activation” value was inactive: -0.665%. For `CC(=O)NCCC1CCCCN1C(=O)c1cc(COc2cc(C)ccc2C)on1` (stereo unspecified), the Potency was active: 3.55 µM. For `COc1ccc(C=Nc2cccnc2N)cc1`, the “activation” value was inactive: 7.87%. In the case of `COc1ccc(C(=O)c2sc(NC(C)C)nc2N)cc1OC`, the “activation” value was inactive: -1.73%. With `CC(C)(C)n1ncc2c(=O)n(CC(=O)OCc3ccccc3)cnc21` the Potency was inconclusive [activator, partial curve]. In the case of `O=C(Nc1ccccn1)c1ccc(Br)s1`, the Potency was active: 1.78 µM. For `COc1ccccc1C(=O)Nc1ccc2c(c1)nc1n2CCSC1`, the Potency was inconclusive [activator, partial curve]. In the case of `Cc1ccc(C(=O)NC2CCCCCCC2)cc1S(=O)(=O)N1CCOCC1`, the Potency was inconclusive [activator, partial curve]. For `Cc1ccc(O)c(NC(=O)c2ccco2)c1`, the Potency was inconclusive [activator, partial curve]. For `O=c1c2ccccc2oc2ccc(NCCCN3CCOCC3)cc12`, the Potency was active: 2.82 µM. For `Cc1cc(C)n(-c2nnc(NC(C)(C)C)nn2)n1`, the Potency was inconclusive [activator, partial curve]. In the case of `COc1cccc(C(=O)c2c[nH]c(C(=O)NCCCN3CCOCC3)c2)c1`, the Potency was inconclusive [activator, single point]. With `Cc1ccc(-n2cccc2/C=C2/C(=N)N3C(=NC2=O)SN=C3S(C)(=O)=O)cc1` the “activation” value was inactive: -1.3%. In the case of `COc1cccc2cc(-c3nnc(-c4ccccc4)o3)c(=O)oc12`, the Potency was active: 0.501 µM. In the case of `CN1CCN(c2nc(-c3ccc(Cl)s3)cs2)CC1`, the “activation” value was inactive: 12.5%. With `O=C(O)Cc1sc(Nc2ccccc2)nc1-c1cccs1` the Potency was inconclusive [activator, single point]. With `C=CCn1c(SCc2csc(-c3ccc(C)cc3)n2)nnc1-c1ccccc1OC` the “activation” value was inactive: -0.944%. With `O=C(COCc1cc(-c2ccc3c(c2)OCO3)on1)N1CCCCC1` the Potency was inconclusive [activator, partial curve]. For `COc1ccc(OCc2cc(C(=O)NC(C)c3csc(C)n3)no2)c(Cl)c1` (stereo unspecified), the Potency was inconclusive [activator, partial curve]. For `O=C(c1ccco1)N1CCN(C(=O)c2ccc(-c3ccccc3Cl)o2)CC1`, the Potency was inconclusive [activator, partial curve]. For `Cc1cccnc1Nc1nc(-c2ccccn2)cs1`, the Potency was inconclusive [activator, single point]. With `Cc1cc(/C=C2\SC(=S)N(Cc3ccco3)C2=O)c(C)n1-c1ccccc1` the Potency was inconclusive [activator, single point]. For `CN(C)c1ccc(NC(=S)c2ccc3ccccc3n2)cc1`, the Potency was inconclusive [activator, partial curve]. With `Cc1cccc(-c2nc(C#N)c(NC3CCCCC3)o2)c1` the Potency was active: 2.51 µM. In the case of `OCc1cn(-c2ccccc2)nc1-c1ccc2c(c1)OCCO2`, the Potency was inconclusive [activator, single point]. With `Cc1ccc(Nc2nc(-c3sc(N)nc3C)cs2)cc1` the Potency was active: 0.794 µM. In the case of `COC(=O)c1c(C)[nH]c(C=O)c1-c1ccccc1`, the “activation” value was inactive: 27.1%. For `CCc1nnc(NS(=O)(=O)c2ccc(N3C(=O)c4ccc(C(=O)O)cc4C3=O)cc2)s1`, the “activation” value was inactive: -4.81%. In the case of `C=CCN=C(NC#N)SCC(=O)c1cccc(OC)c1`, the Potency was active: 3.55 µM. For `Cc1ccc(OCCOc2cccc(Br)c2)c([N+](=O)[O-])n1`, the Potency was inconclusive [activator, single point]. For `COc1ccc(C2CC(c3ccccc3)=NN2c2ccc(N)cc2)cc1` (stereo unspecified), the “activation” value was inactive: -4.57%. In the case of `CC1CCCN(C(=O)COC(=O)CNC(=O)c2ccc(Br)cc2)C1` (stereo unspecified), the “activation” value was inactive: 0.247%. In the case of `O=C(Nc1ccc2nc(-c3ccccc3)oc2c1)c1ccco1`, the Potency was inconclusive [activator, partial curve]. In the case of `O=C(Nc1ccc2[nH]ncc2c1)c1cccc(F)c1`, the Potency was inconclusive [activator, single point]. In the case of `COc1cc(Cl)ccc1OCc1cc(C(=O)N[C@H]2CCCCNC2=O)no1`, the Potency was inconclusive [activator, single point]. In the case of `CC1CCc2sc(C(=O)NC(C)C3CCCO3)cc2C1` (stereo unspecified), the Potency was inconclusive [activator, partial curve]. In the case of `CN(C)c1ccc(N=Cc2nc(-c3ccccc3)oc2O)cc1`, the Potency was inconclusive [activator, single point]. For `COCCN(C(=O)CSc1nnc(-c2ccccc2C)n1C)c1c(N)n(Cc2ccccc2)c(=O)[nH]c1=O`, the “activation” value was inactive: -6.52%. For `Cn1c(SCC(=O)c2ccc(F)cc2)nnc1-c1ccccn1`, the Potency was inconclusive [activator, partial curve]. With `CC1CCCCN1C(=O)CSc1nnc(-c2ccc(Cl)s2)o1` (stereo unspecified) the Potency was inconclusive [activator, single point]. For `O=C(Cc1cccs1)Nc1ccc(Cl)cc1`, the “activation” value was inactive: 15.4%. With `Cc1cccn2cc(CNc3ccccc3)nc12` the Potency was inconclusive [activator, partial curve]. For `CCc1ccc(C(=O)Nc2ccc(C)c(NS(C)(=O)=O)c2)cc1`, the Potency was inconclusive [activator, single point]. In the case of `O=C(Nc1ccc(Cl)cn1)c1cccc(F)c1`, the Potency was inconclusive [activator, partial curve]. With `Cc1cc(C(=O)N(C)C)sc1-c1ccccc1` the Potency was inconclusive [activator, single point]. In the case of `O=C(NC1CCCCC1)c1cc(-c2ccc(F)cc2)on1`, the Potency was active: 1.41 µM. For `COc1ccc(C(=O)COc2ccc(F)cc2)c(O)c1`, the Potency was active: 3.16 µM. For `NC(=O)COc1ccc(NC(=O)OCc2ccccc2)cc1`, the “activation” value was inactive: 19.8%. In the case of `CC(OC(=O)CCC(=O)c1cccs1)C(=O)NC1CCCCC1C` (stereo unspecified), the “activation” value was inactive: 0.11%. With `CSc1ccccc1NC(=O)c1cc(-c2cccs2)on1` the Potency was inconclusive [activator, single point]. For `Cc1csc(NC(=O)c2ccc3nc[nH]c3c2)n1`, the Potency was inconclusive [activator, partial curve, poor fit]. In the case of `COCCCN=C1NN=C(c2cc(C)n(-c3ccccc3)c2C)CS1`, the Potency was inconclusive [activator, full curve, poor fit]. In the case of `Cc1ccc(C(=O)NNC(=O)Cn2nnc3ccccc32)cc1`, the “activation” value was inactive: -1.69%. In the case of `COC(=O)[C@@]12CCCCN1[C@H](c1ccc(-c3ccc(F)cc3)c(OC)c1)[C@@H]1C(=O)N(C)C(=O)[C@@H]12`, the “activation” value was inactive: -1.05%. With `COc1cc(/C=N/NS(=O)(=O)c2ccc(C)cc2)ccc1OCc1ccc(C(=O)O)cc1` the Potency was active: 0.794 µM. In the case of `Cc1cccc(NS(=O)(=O)c2ccc(C)c(C(=O)NCCCN3CCOCC3)c2)c1`, the “activation” value was inactive: -2.48%. In the case of `Cc1cc(-c2ccc(N3CCOCC3)cc2)nc2ccccc12`, the Potency was inconclusive [activator, single point]. With `O=C1c2ccccc2NC(c2ccc(-c3ccccc3F)o2)N1O` (stereo unspecified) the Potency was inconclusive [activator, single point].
